{"sequences": {"note": "By UniProt entry, the sequences of proteins in these tests, tags left out.", "UniProt G3V7R4": "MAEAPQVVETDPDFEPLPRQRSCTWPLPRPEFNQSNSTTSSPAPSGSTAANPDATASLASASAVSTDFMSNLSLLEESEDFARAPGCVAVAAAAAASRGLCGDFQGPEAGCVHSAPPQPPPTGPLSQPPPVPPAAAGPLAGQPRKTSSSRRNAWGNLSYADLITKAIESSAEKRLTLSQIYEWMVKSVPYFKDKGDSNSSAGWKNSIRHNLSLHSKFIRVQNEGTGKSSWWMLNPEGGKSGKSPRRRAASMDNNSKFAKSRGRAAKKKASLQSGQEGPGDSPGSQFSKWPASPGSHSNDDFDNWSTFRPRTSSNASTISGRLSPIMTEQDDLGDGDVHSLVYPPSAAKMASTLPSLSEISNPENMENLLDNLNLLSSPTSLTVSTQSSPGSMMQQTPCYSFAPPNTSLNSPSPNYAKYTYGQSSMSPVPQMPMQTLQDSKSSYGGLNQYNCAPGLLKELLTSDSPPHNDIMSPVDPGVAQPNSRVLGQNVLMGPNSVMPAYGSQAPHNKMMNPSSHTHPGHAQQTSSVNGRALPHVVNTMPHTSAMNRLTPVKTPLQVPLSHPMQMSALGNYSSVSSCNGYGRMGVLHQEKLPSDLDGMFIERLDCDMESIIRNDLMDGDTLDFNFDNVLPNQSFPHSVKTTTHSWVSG"}, "source": "paper PMC8997990", "molecules": {"B1": {"name": "in vitro translated full-length NKX2.1 (protein, UniProt P43699 1-371)", "chain": "MSMSPKHTTPFSVSDILSPLEESYKKVGMEGGGLGAPLAAYRQGQAAPPTAAMQQHAVGHHGAVTAAYHMTAAGVPQLSHSAVGGYCNGNLGNMSELPPYQDTMRNSASGPGWYGANPDPRFPAISRFMGPASGMNMSGMGGLGSLGDVSKNMAPLPSAPRRKRRVLFSQAQVYELERRFKQQKYLSAPEREHLASMIHLTPTQVKIWFQNHRYKMKRQAKDKAAQQQLQQDSGGGGGGGGTGCPQQQQAQQQSPRRVAVPVLVKDGKPCQAGAPAPGAASLQGHAQQQAQHQAQAAQAAAAAISVGSGGAGLGAHPGHQPGSAGQSPDLAHHAASPAALQGQVSSLSHLNSSGSDYGTMSCSTLLYGRTW"}}, "key": {"[1]": {"biological_target": "T1, endogenous NKX2.1 of primary rat alveolar epithelial cells (rat (endogenous in primary rat AEC)) (UniProt P23441)", "T1 sequence": "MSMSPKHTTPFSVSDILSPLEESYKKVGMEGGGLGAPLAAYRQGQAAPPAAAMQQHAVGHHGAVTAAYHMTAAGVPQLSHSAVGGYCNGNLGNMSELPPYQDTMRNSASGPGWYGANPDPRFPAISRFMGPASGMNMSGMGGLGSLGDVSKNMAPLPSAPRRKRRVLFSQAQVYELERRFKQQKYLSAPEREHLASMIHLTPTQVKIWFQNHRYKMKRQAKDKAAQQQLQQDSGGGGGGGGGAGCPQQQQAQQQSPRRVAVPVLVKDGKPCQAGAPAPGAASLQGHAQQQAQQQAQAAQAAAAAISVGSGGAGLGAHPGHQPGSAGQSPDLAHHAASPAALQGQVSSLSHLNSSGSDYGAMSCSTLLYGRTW", "test": "co-IP; nuclear extracts (200 ug) of primary rat AEC on day 3 in culture; anti-NKX2.1 monoclonal or rabbit polyclonal anti-FOXO1 antibody or IgG control, overnight at 4 C in IP Low Wash Buffer, Protein A/G beads; blot for FOXO1 or NKX2.1"}, "GST-NKX2.1-C": {"biological_target": "T2, GST-NKX2.1-C (UniProt P43699)", "T2 sequence": "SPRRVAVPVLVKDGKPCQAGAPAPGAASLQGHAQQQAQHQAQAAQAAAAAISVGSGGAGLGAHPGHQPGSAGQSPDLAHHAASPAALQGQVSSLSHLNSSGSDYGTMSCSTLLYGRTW", "test": "pull-down; GST-NKX2.1 fusion proteins (full-length and domains) on glutathione-sepharose; in vitro translated FOXO1; binding buffer; blot with anti-FOXO1; only the target purified"}, "GST-NKX2.1-HD": {"biological_target": "T3, GST-NKX2.1-HD (UniProt P43699)", "T3 sequence": "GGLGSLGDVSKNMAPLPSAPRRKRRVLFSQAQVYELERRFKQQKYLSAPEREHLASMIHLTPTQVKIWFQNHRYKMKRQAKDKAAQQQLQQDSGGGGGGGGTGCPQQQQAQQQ", "test": "pull-down; GST-NKX2.1 fusion proteins (full-length and domains) on glutathione-sepharose; in vitro translated FOXO1; binding buffer; blot with anti-FOXO1; only the target purified"}, "[2]": {"biological_target": "GST-FOXO1 full-length (FL) (UniProt Q12778)", "test": "pull-down; GST-FOXO1 fusion proteins (full-length and domains) or GST on glutathione-sepharose; in vitro translated NKX2.1; 50 mM Tris-HCl, 120 mM NaCl, 2 mM EDTA, 0.1% NP-40, 1 h at RT; blot with anti-NKX2.1; only the target purified"}, "GST-FOXO1-C (human)": {"biological_target": "GST-FOXO1-C (human) (UniProt Q12778)", "test": "pull-down; GST-FOXO1 fusion proteins (full-length and domains) or GST on glutathione-sepharose; in vitro translated NKX2.1; 50 mM Tris-HCl, 120 mM NaCl, 2 mM EDTA, 0.1% NP-40, 1 h at RT; blot with anti-NKX2.1; only the target purified"}, "GST-FOXO1-FK": {"biological_target": "GST-FOXO1-FK (UniProt Q12778)", "test": "pull-down; GST-FOXO1 fusion proteins (full-length and domains) or GST on glutathione-sepharose; in vitro translated NKX2.1; 50 mM Tris-HCl, 120 mM NaCl, 2 mM EDTA, 0.1% NP-40, 1 h at RT; blot with anti-NKX2.1; only the target purified"}, "GST-FOXO1-M": {"biological_target": "GST-FOXO1-M (UniProt Q12778)", "test": "pull-down; GST-FOXO1 fusion proteins (full-length and domains) or GST on glutathione-sepharose; in vitro translated NKX2.1; 50 mM Tris-HCl, 120 mM NaCl, 2 mM EDTA, 0.1% NP-40, 1 h at RT; blot with anti-NKX2.1; only the target purified"}, "GST-FOXO1-N": {"biological_target": "T4, GST-FOXO1-N (UniProt Q12778)", "T4 sequence": "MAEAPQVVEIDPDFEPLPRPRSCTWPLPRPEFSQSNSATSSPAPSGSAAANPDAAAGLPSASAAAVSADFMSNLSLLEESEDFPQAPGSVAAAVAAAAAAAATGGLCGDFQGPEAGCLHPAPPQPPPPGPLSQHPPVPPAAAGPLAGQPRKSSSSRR", "test": "pull-down; GST-FOXO1 fusion proteins (full-length and domains) or GST on glutathione-sepharose; in vitro translated NKX2.1; 50 mM Tris-HCl, 120 mM NaCl, 2 mM EDTA, 0.1% NP-40, 1 h at RT; blot with anti-NKX2.1; only the target purified"}, "GST-FOXO1-N + FK": {"biological_target": "GST-FOXO1-N + FK (UniProt Q12778)", "test": "pull-down; GST-FOXO1 fusion proteins (full-length and domains) or GST on glutathione-sepharose; in vitro translated NKX2.1; 50 mM Tris-HCl, 120 mM NaCl, 2 mM EDTA, 0.1% NP-40, 1 h at RT; blot with anti-NKX2.1; only the target purified"}}, "note": "These are yes or no findings as the source states them, for the method shown. In cells and extracts the contact can be indirect. Some results given as binding are weak or reduced against the parent protein; the word gives no strength. For part of these data: Sequences can lack the tags named with a protein.", "data": [{"molecule": "endogenous FOXO1 of primary rat alveolar epithelial cells (from UniProt G3V7R4 1-649)", "values": [{"measurement": "binding", "setting": "[1]", "result": "binds"}]}, {"molecule": "in vitro translated full-length FOXO1 (from UniProt Q12778 1-655)", "values": [{"measurement": "binding", "setting": "GST-NKX2.1-C", "result": "no binding"}, {"measurement": "binding", "setting": "GST-NKX2.1-HD", "result": "binds"}]}, {"molecule": "B1", "values": [{"measurement": "binding", "setting": "[2]", "result": "binds"}, {"measurement": "binding", "setting": "GST-FOXO1-C (human)", "result": "no binding"}, {"measurement": "binding", "setting": "GST-FOXO1-FK", "result": "binds"}, {"measurement": "binding", "setting": "GST-FOXO1-M", "result": "no binding"}, {"measurement": "binding", "setting": "GST-FOXO1-N", "result": "no binding"}, {"measurement": "binding", "setting": "GST-FOXO1-N + FK", "result": "binds"}]}]}
